# Measured values: PubChem BioAssay (Tox21)
# Several values for one entry are separate records, joined by “and”; a condition that tells them apart may be missing. Identical values can stand only once. Inconclusive results, whose numbers are uncertain, are shown with a selection of clear calls. A potency beside an inconclusive call is a rough fit, not a confirmed value. Activity calls are given as the source filed them. Unless noted, calls come from the whole dose curve.
# Key:
# [1] = target: Progesterone receptor (Homo sapiens) (UniProt P06401); experiment: qHTS assay to identify small molecule agonists of the progesterone receptor (PR) signaling pathway (AID 1346784); conditions: PR-UAS-bla HEK293T, beta-lactamase FRET ratio, 16 h; activation: at 92.4 µM (top of the series) unless noted; note: nearly all actives have a fitted effect of over 30% in size; for activation: % is set by controls: 0 for no effect and ±100 for the full control effect
# UniProt P06401, sequence (P06401 whole entry, looked up): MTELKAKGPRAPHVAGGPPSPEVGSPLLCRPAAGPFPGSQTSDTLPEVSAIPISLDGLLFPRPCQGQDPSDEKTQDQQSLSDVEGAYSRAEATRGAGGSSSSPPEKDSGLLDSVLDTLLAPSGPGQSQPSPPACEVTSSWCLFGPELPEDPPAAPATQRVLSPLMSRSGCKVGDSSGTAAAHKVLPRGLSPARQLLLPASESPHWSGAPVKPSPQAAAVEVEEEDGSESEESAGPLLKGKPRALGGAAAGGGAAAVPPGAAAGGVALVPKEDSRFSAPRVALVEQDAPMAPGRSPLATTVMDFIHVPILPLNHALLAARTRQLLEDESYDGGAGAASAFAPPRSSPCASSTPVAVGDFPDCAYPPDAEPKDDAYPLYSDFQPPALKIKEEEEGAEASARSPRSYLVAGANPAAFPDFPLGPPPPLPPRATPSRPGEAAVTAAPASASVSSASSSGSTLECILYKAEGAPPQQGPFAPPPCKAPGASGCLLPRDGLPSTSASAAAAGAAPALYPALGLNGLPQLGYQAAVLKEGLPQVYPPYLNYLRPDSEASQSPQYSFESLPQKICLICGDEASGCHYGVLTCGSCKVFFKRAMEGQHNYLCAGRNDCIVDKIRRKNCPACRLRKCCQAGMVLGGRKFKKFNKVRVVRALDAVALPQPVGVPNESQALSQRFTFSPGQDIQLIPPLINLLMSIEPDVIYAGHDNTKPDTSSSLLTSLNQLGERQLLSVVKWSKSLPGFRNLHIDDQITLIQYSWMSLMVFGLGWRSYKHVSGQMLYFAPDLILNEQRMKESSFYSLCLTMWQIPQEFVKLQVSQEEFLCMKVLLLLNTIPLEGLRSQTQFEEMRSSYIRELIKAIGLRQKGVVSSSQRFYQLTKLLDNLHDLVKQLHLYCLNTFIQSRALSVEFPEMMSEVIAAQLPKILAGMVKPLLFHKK
# Outline: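 Beta-lactamase reporter read-out: after 16 hr compound treatment at 37C and a further 2 hr at room temperature with LiveBLAzer B/G FRET substrate, fluorescence was measured in PR-UAS-bla HEK 293T cells grown in 2% charcoal-stripped serum.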
# [2] = target: Progesterone receptor (Homo sapiens) (UniProt P06401); experiment: qHTS assay to identify small molecule antagonists of the progesterone receptor (PR) signaling pathway (AID 1346795; active = well fitted inhibition curve with a large enough effect in the signal ratio in the repeat runs, not every such curve was filed as active; inconclusive = weak or mixed curves; the % refers to the signal ratio; for activity change, negative = inhibition: % is set by controls: 0 for no effect and ±100 for the full control effect); conditions: PR-UAS-bla HEK293T, beta-lactamase FRET ratio, 16 h; activity change, negative = inhibition: at 92.4 µM (top of the series) unless noted
# Outline: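 Read-out is fluorescence from the LiveBLAzer B/G FRET substrate, cleaved by a UAS-controlled beta-lactamase in PR-UAS-bla HEK293T cells after 16 hr exposure to compound plus 1 nM promegestone (final), followed by 2 hr at room temperature.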
# [3] = qHTS assay to identify small molecule antagonists of the progesterone receptor (PR) signaling pathway - cell viability counter screen (AID 1346798; active = well fitted curve in the direction sought with a large enough effect in the repeat runs; inconclusive = weak or mixed curves; inactive = no such curve, though single readings can be large; an effect the other way counts as inactive or inconclusive; note: nearly all actives have a fitted effect of over 50% in size;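 for activity change, negative = cytotoxicity: HEK293T PR-UAS-bla cells stimulated with the agonist R5020; % is set by controls: 0 for no effect and ±100 for the full control effect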)
# Outline: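 HEK293T PR-UAS-bla, 2% charcoal-stripped FBS; 4 hr pre-plate; cpd + R5020, 16 h 37C; LiveBLAzer read first; then CellTiter-Glo 30 min RT, luminescence.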
# [4] = qHTS assay to identify small molecule agonists of the progesterone receptor (PR) signaling pathway - cell viability counter screen (AID 1346799); note: nearly all actives have a fitted effect of over 45% in size; for activity change, negative = cytotoxicity: % is set by controls: 0 for no effect and ±100 for the full control effect
# Outline: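 Luminescence from CellTiter-Glo, added after the beta-lactamase FRET read in the same wells, gave cytotoxicity in PR-UAS-bla HEK293T cells treated with compounds for 16 hr at 37C.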
# [5] = qHTS assay to identify small molecule agonists of the estrogen receptor alpha (ER-alpha) signaling pathway in the presence of an antagonist - cell viability counter screen (AID 1259386; active = well fitted curve in the direction sought with a large enough effect in the repeat runs; inconclusive = weak or mixed curves; inactive = no such curve, though single readings can be large; an effect the other way counts as inactive or inconclusive;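 note: cells exposed to compounds for 22 h at 37 °C before the viability read; nearly all actives have a fitted effect of over 30% in size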)
# Outline: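 The test measures whether compounds kill ER-alpha reporter cells (VM7Luc4E2) under antagonist co-treatment (ICI-182,780, 10.0nM). Fluorescence from CellTiter-Fluor is read after a 22hr exposure.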
# [6] = qHTS assay to identify small molecule antagonists of the TGF-beta/Smad signaling pathway - cell viability counter screen (AID 1346824; active = well fitted curve in the direction sought with a large enough effect in the repeat runs; inconclusive = weak or mixed curves; inactive = no such curve, though single readings can be large; an effect the other way counts as inactive or inconclusive; note: nearly all actives have a fitted effect of over 50% in size)
# Outline: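 SBE-bla HEK 293T cells were plated overnight at 37 C, then given compounds in DMSO plus TGF-beta1 (added as 0.25 ng/mL solution) for 5 hr. After the bla read, CellTiter-Glo was added to the same wells and luminescence read after 30 min at room temperature.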
# [7] = qHTS assay to identify small molecule agonists of the TGF-beta/Smad signaling pathway (AID 1346859; active = well fitted activation curve with a large enough effect in the signal ratio in the repeat runs, not every such curve was filed as active; inconclusive = weak or mixed curves; the % refers to the signal ratio); conditions: SBE-bla HEK293T, TGF-beta/Smad beta-lactamase reporter, 5 h; activation: at 76.8 µM (top of the series) unless noted
# Outline: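 SBE-bla HEK 293T, 4,000 cells/well, plated o/n; cpd in DMSO, 5 hr, 37 C/5% CO2; B/G FRET substrate 2 hr RT; ex 405, em 460/530 nm.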
# [8] = target: Thyrotropin-releasing hormone receptor (Homo sapiens) (UniProt P34981); experiment: qHTS assay to identify small molecule antagonists of the thyrotropin-releasing hormone receptor (TRHR) signaling pathway (AID 1346877; active = well fitted inhibition curve with a large enough effect in the repeat runs, not every such curve was filed as active; inconclusive = weak or mixed curves)
# UniProt P34981, sequence (P34981 whole entry, looked up): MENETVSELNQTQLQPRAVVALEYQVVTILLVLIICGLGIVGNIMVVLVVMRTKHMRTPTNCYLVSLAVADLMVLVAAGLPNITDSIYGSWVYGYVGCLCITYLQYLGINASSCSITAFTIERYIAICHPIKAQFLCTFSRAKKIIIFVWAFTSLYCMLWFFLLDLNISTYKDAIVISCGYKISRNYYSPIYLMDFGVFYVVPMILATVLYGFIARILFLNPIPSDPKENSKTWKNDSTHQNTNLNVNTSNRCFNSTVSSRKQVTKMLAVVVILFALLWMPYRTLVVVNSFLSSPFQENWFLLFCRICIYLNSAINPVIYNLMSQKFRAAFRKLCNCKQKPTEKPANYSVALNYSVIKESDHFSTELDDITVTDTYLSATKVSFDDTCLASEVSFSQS
# Outline: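 Overnight-plated (18 h, 37 °C) HEK293 cells expressing TRHR were dye-loaded 2 h, treated with compound, then stimulated with TRH at 1 nM final. Fluorescence intensity was captured every second for 3 min.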
# [9] = qHTS assay to identify small molecule agonists of the TGF-beta/Smad signaling pathway - cell viability counter screen (AID 1346829; active = well fitted curve in the direction sought with a large enough effect in the repeat runs; inconclusive = weak or mixed curves; inactive = no such curve, though single readings can be large; an effect the other way counts as inactive or inconclusive; note: nearly all actives have a fitted effect of over 45% in size)
# Outline: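 CellTiter-Glo luminescence readout; SBE-bla HEK 293T cells, overnight plating, compound 5 hr at 37 C/5% CO2, then bla substrate 2 hr RT, then CellTiter-Glo 30 min RT.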
# Potency is the fitted concentration of half-maximal effect; tags give direction and shape of the fitted curve or compound fluorescence and quenching.
smiles,measurement,setting,value
COC(=O)[C@@H](N)Cc1ccc(O)c(O)c1,Potency,[1],inactive
C/C=C(\C)C(=O)OCC/C=C\CC,Potency,[1],inactive
O=Cc1ccccc1C=O,Potency,[1],"inconclusive: 17.2 µM [activator, partial curve]"
same,Potency,[2],"inconclusive: 68.6 µM [falling, single point]"
same,Potency,[3],"inconclusive: 10.9 µM [rising, full curve, poor fit]"
O=C(C(=O)c1ccccc1)c1ccccc1,Potency,[1],"inconclusive: 68.3 µM [rising, partial curve, poor fit]"
Oc1ccc(Cc2ccccc2)cc1,Potency,[1],"inconclusive: 63.5 µM [cytotoxic, single point]"
same,Potency,[2],active: 22.5 µM
same,Potency,[3],"inconclusive: 63.5 µM [rising, single point]"
same,Potency,[4],"inconclusive: 63.5 µM [rising, single point]"
O=c1c(O)c(-c2ccc(O)c(O)c2)oc2cc(O)cc(O)c12,Potency,[5],"inconclusive: 43.3 µM [cytotoxic, partial curve] and inconclusive: 49 µM [cytotoxic, partial curve] and inconclusive: 68.6 µM [cytotoxic, single point]"
same,Potency,[6],"inconclusive: 34.7 µM [rising, partial curve]"
same,Potency,[7],"inconclusive: 19.5 µM [rising, full curve]"
O=Cc1cc(O)ccc1Br,Potency,[1],active: 0.983 µM
same,Potency,[2],active: 55.3 µM
same,Potency,[3],"inconclusive: 34.9 µM [rising, partial curve]"
same,Potency,[4],"inconclusive: 11 µM [rising, partial curve, poor fit]"
CCCCCC1=CCCC1=O,Potency,[1],"inconclusive: 19.7 µM [falling, full curve, poor fit]"
C[C@H](CCC(=O)O)[C@H]1CC[C@H]2[C@@H]3CC[C@@H]4C[C@H](O)CC[C@]4(C)[C@H]3CC[C@]12C,Potency,[1],"inconclusive: 30.5 µM [cytotoxic, full curve]"
same,activation,[1],inconclusive: -22.9%
same,Potency,[2],active: 19.3 µM and active: 48.6 µM
same,Potency,[3],active: 24.2 µM and active: 61.1 µM
same,Potency,[4],active: 30.5 µM and active: 38.6 µM
same,Potency,[6],"inconclusive: 54.7 µM [cytotoxic, single point] and inconclusive: 49 µM [cytotoxic, partial curve, poor fit]"
same,Potency,[7],"inconclusive: 48.8 µM [rising, partial curve] and inconclusive: 49 µM [rising, partial curve]"
same,Potency,[8],"inconclusive: 26.8 µM [inhibitor, partial curve] and inconclusive: 33.8 µM [inhibitor, single point]"
NNc1ccc(C(=O)O)cc1,Potency,[5],"inconclusive: 69.3 µM [cytotoxic, single point]"
same,Potency,[4],inactive and inconclusive: 69.3 µM [cytotoxic]
CCCCCCCCCOC(=O)CCCCC(=O)OCCCCCCC,Potency,[1],inactive
same,Potency,[2],inactive
C=C(C)C1CC=C(C)CC1 (stereo not given),Potency,[1],inactive
CC1(C)C(=O)N(Cl)C(=O)N1Br,activation,[1],inconclusive: 7.34%
CN(C)c1ccc(/C=C/c2ccc([N+](=O)[O-])cc2)cc1,activation,[1],inconclusive: -2.23% [at 8.39 µM]
same,"activity change, negative = inhibition",[2],inactive: -17.2% [at 8.39 µM]
same,"activity change, negative = cytotoxicity",[3],inactive: -5% [at 8.39 µM]
same,activation,[7],inactive: -9.78% [at 6.97 µM]
CCCCOC(=O)[C@H](C)O,Potency,[1],inactive
same,Potency,[2],inactive
same,Potency,[3],"inconclusive: 1.37 µM [cytotoxic, single point]"
same,Potency,[4],inactive
same,Potency,[7],inactive
CC1(C)[C@H](C(=O)O)N2C(=O)C[C@H]2S1(=O)=O,activation,[1],inconclusive: -20.2% [at 42.5 µM]
same,Potency,[2],"inconclusive: 13.3 µM [rising, partial curve]"
same,Potency,[6],inactive
Nc1ccc2cc3ccc(N)cc3nc2c1,Potency,[1],"inconclusive: 2.17 µM [activator, partial curve]"
same,Potency,[2],"inconclusive: 12.2 µM [rising, full curve] and inconclusive: 13.3 µM [rising, full curve]"
same,Potency,[3],"inconclusive: 9.69 µM [cytotoxic] and inconclusive: 13.3 µM [cytotoxic, single point]"
same,Potency,[6],"inconclusive: 17.4 µM [rising, full curve]"
same,Potency,[9],"inconclusive: 27.5 µM [rising, full curve, poor fit]"
same,Potency,[8],"active: 33.8 µM and inconclusive: 16.5 µM [inhibitor, single point]"
COC(=O)c1nc(Cl)c(Cl)nc1N,Potency,[1],inconclusive: 29.8 µM [partial curve]
same,Potency,[2],inconclusive: 29.8 µM
same,Potency,[3],"inconclusive: 33.5 µM [cytotoxic, single point]"
same,Potency,[4],inconclusive: 33.5 µM [cytotoxic]
same,Potency,[7],active: 23.9 µM
